Test results as given in patent US5726041A, “Method for detecting a receptor-ligand complex using a cytochrome P450 reporter gene” (priority 1996, dated 1998).
Values belong to the molecule of their own block, whether it stands above or below them.

How the values were obtained:
[1] = test system: CYP2A6 reporter expression
[2] = test system: CYP2D6 expression from SV40 expression cassette; assay: CYP2D6 expression (bufuralol hydroxylase) from SV40 expression cassette, PPARα surrogate; assay type: cell-based, human; conditions: SV296 based construction; treatment with 5dAC
[3] = molecular target: T1, native glucocorticoid receptor (Homo sapiens, UniProt P04150); assay: CYP2A6 reporter (coumarin 7-hydroxylase) coupled to GRE/MMTV-LTR promoter, native glucocorticoid receptor of host cells; conditions: for Coumarin Hydroxylase Activity DEX Induced: DEX 2.5 uM
T1 sequence (P04150 1-777): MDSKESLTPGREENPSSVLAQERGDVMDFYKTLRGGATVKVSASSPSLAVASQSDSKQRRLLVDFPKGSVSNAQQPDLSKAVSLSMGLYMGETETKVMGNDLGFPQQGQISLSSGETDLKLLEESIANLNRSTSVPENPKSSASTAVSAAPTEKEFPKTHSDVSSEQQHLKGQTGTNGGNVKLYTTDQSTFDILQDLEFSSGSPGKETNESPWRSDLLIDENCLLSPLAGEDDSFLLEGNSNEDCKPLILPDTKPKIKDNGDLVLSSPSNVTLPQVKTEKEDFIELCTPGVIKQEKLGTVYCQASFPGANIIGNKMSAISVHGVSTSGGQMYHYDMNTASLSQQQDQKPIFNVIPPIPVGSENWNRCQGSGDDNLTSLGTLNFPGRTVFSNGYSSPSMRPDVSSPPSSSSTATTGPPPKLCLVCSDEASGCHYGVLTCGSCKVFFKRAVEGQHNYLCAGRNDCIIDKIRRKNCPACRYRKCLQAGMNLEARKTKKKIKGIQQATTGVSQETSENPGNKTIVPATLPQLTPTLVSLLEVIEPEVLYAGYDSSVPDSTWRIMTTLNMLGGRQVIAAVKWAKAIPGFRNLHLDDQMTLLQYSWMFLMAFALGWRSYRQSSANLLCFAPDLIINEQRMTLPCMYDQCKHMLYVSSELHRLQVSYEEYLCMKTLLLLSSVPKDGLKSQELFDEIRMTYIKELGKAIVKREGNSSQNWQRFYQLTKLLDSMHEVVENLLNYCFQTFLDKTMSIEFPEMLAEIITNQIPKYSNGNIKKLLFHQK

AHH-1 TK± cells = test system: AHH-1 TK± cells
Text: The reporter gene expression as reported in previous tables and figures is expressed as pmoles product/well in a 96 well microtiter plate as measured fluorometrically. […] A toxicity curve reflecting the relative number of cells/well present at the end of treatment was obtained as a function of chemical concentration. […] This suppression can be corrected for by determining the cell concentration in the well or by determining the suppression of CH activity in a cell line which constitutively expresses the reporter.

mouse PPARα = molecular target: T2, mouse PPARα (Mus musculus, UniProt P23204)
T2 sequence (P23204 1-468): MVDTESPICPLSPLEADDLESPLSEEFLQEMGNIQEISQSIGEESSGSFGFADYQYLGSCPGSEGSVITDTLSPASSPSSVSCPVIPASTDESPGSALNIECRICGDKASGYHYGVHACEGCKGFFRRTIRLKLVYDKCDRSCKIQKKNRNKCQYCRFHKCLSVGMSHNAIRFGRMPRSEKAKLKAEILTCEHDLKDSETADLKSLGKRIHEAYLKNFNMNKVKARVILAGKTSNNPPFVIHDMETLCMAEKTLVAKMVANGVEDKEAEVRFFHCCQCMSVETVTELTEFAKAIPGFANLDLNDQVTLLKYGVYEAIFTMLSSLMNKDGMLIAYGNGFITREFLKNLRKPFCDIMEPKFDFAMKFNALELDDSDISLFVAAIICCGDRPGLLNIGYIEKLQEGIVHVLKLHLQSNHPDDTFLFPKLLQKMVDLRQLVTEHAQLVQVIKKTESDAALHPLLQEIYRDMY
Procedure: MMTV-LTR1 is native, MMTV-LTR2 is minus CpG, MMTV-LTR3 is TATA only. Orientation is relative to reporter. CH activity is pmole per 10^6 cell min. Assuming the cells double every 24 hours, the maximium cell density is 2×10^6 cells per ml, using the log average cell concentration for each day of exposure. Earliest post fusion-values were used. […] It is merely a concentration in the monotonic portion of the dose response curve which has been used consistently in many experiments.
The comparison was performed by incubating 0.2 ml cells for 3 days in the wells of a microtiter plate at an initial cell concentration of 5×10^5 cells per ml in the presence of increasing amounts of inducer and 50 uM coumarin.
In this test we used an initial cell concentration of 2 million cells/ml contained in 0.2 ml culture medium per well of a 96 well microtiter plate. Coumarin (0.05 mM) and clofibrate (concentration was an experimental variable) were added at the beginning of the incubation time. Cells were incubated for 3 days and the 7-hydroxycoumarin content in the wells was analyzed by fluorescence with excitation at 360 nm and emission at 460 nm using a Cytofluor 2350 (Millipore). […] The elevation in pH increases 7-hydroxycoumarin fluorescence by increasing the proportion of the fluorochrome which is ionized. Quantitation was achieved by comparison to a 7-hydroxycoumarin standard curve.
The ACO-PPRE constructs were centrifuged and resuspended at a density of 2 million cells per milliliter in RPMI media with 9% horse serum. One hundred microliters of the cell suspension was distributed into a total of four rows, two rows being at the opposite end of a 96 well microtiter plate. One set was labeled as clofibrate and the other set was labeled as the blank. Clofibrate was then added at concentration of 3 mM, 2 mM, 1 mM, 0.5 mM & 0 mM to the appropriate wells. Stock concentration of clofibrate was 50 mM in 75 mM NaOH. One hundred microliters of media containing 100 micromolar coumarin was then added to the clofibrate containing wells. The negative control contained cell suspension and 100 uM coumarin only. The plates were placed at […] for three days. In a distinct set of wells, one hundred microliters of hydroxy-coumarin standard was placed in two rows The concentrations are in units of pmoles and the values are: 1250, 625, 313, 156, 78, 39, 19.5 & 0. At the end of the three day incubation period, one hundred microliters of media containing 100 uM coumarin was added to the wells labeled as blank. Next 0.1M Tris pH 9.0 was distributed to the contents of each well. Fluorescence was analyzed with a cytofluor 2350 (Millipore) with excitation at 360 nm and emission at 460 nm (both filters with a 40 nm bandwidth). The net fluorence was calculated by subtracting the fluorescence of the blank wells from the fluorescence of the test wells for each clofibrate concentration. Conversion to pmole product per well was accomplished by comparison to the fluorescence of the standards. The responsiveness of the different constructs to clofibrate induction was measured immediately after viable, hygromycin resistant cells were obtained and periodically thereafter in order to evaluate the stability of the system. The data were graphed as the fold induction relative to the without clofibrate control incubation. This is a measure of the responsiveness of the system and corrects for differences in the negative control values for the different reporter constructs.

CYP2A6 = conditions: coumarin to 7-hydroxycoumarin; read-out: apparent Km; cited from earlier work

Structure (SMILES): Nc1ncn([C@@H]2O[C@H](CO)[C@@H](O)[C@H]2O)c(=O)n1 [5-azacytidine]
expression from the MMTV-LTR (unstable, half life approximately 5 days) [1]: Expression could be restored

Structure (SMILES): Nc1ncn([C@H]2C[C@H](O)[C@@H](CO)O2)c(=O)n1 [5dAC, deoxy-5-azacytidine]
CYP2D6 expression level (bufuralol hydroxylase activity) [2]: not affected | Glucocorticoid induced expression of CYP2A6 decreased with time in culture [1]: could be restored | basal expression of CYP2A6 (coumarin hydroxylase activity) declined with time in culture [1]: activity could be restored | increase of the clofibrate induced signal ([1]; 0.25 ug/mL): 20 to 50 fold

Structure (SMILES): C[C@@H]1C[C@H]2[C@@H]3CCC4=CC(=O)C=C[C@]4(C)[C@@]3(F)[C@@H](O)C[C@]2(C)[C@@]1(O)C(=O)CO [DEX, dexamethasone]
DEX induced CH activity above basal levels ([3]; RSV enhancer, MMTV-LTR with CpG island deleted): about 10 fold | maximal dexamethasone (DEX) induced coumarin 7-hydroxylase (CH) activity ([3]; RSV enhancer, MMTV-LTR with CpG island deleted, low copy vector): 0.1 pmole per (10^6 cells×minute) | Coumarin Hydroxylase Activity DEX Induced ([3]; cell line T144 (pMF6, HaMSV, GRE, MMTV-LTR2), 2 days): 0.3-0.5 pmole/(10^6 cells×min) | Coumarin Hydroxylase Activity DEX Induced ([3]; cell line T147 (pMF6, u700, GRE, MMTV-LTR2)): 0.23 pmole/(10^6 cells×min) | Coumarin Hydroxylase Activity DEX Induced ([3]; cell line T148 (pMF6, u700, GRE, MMTV-LTR2)): 0.15 pmole/(10^6 cells×min) | Coumarin Hydroxylase Activity DEX Induced ([3]; cell line T149 (pMF6, SV40, GRE, MMTV-LTR2)): 0.18 pmole/(10^6 cells×min) | Coumarin Hydroxylase Activity DEX Induced ([3]; cell line T150 (pMF6, SV40, GRE, MMTV-LTR2)): 0.16 pmole/(10^6 cells×min) | Coumarin Hydroxylase Activity DEX Induced ([3]; cell line T156 (pMF6, MSV(5'-3') + SV40, GRE, MMTV-LTR2)): 0.097 pmole/(10^6 cells×min) | Coumarin Hydroxylase Activity DEX Induced ([3]; cell line T157 (pMF6, MSV(5'-3') + SV40, GRE, MMTV-LTR2)): 0.097 pmole/(10^6 cells×min) | Coumarin Hydroxylase Activity DEX Induced ([3]; cell line T162 (pMF6, u700(3'-5') + SV40, GRE, MMTV-LTR2)): 0.042 pmole/(10^6 cells×min) | Coumarin Hydroxylase Activity DEX Induced ([3]; cell line T163 (pMF6, u700(3'-5') + SV40, GRE, MMTV-LTR2)): 0.056 pmole/(10^6 cells×min) | Coumarin Hydroxylase Activity DEX Induced ([3]; cell line T168 (pMF6, RSV + SV40, GRE, MMTV-LTR2)): 0.068 pmole/(10^6 cells×min) | Coumarin Hydroxylase Activity DEX Induced ([3]; cell line T169 (pMF6, RSV + SV40, GRE, MMTV-LTR2)): 0.14 pmole/(10^6 cells×min) | Coumarin Hydroxylase Activity DEX Induced ([3]; cell line T174 (pMF6, KAPPA, GRE, MMTV-LTR2)): 0.004 pmole/(10^6 cells×min) | Coumarin Hydroxylase Activity DEX Induced ([3]; cell line T176 (pMF6, HaMSV(5'-3') + KAPPA, GRE, MMTV-LTR2)): 0.3-0.5 pmole/(10^6 cells×min) | Coumarin Hydroxylase Activity DEX Induced ([3]; cell line T177 (pMF6, HaMSV(5'-3') + KAPPA, GRE, MMTV-LTR2), cell adds (Unstable)): 0.26 pmole/(10^6 cells×min) | Coumarin Hydroxylase Activity DEX Induced ([3]; cell line T178 (pMF6, HaMSV(3'-5') + KAPPA, GRE, MMTV-LTR2), cell adds (Inducibility lost)): 0.34 pmole/(10^6 cells×min) | Coumarin Hydroxylase Activity DEX Induced ([3]; cell line T180 (pMF6, RSV + KAPPA, GRE, MMTV-LTR2)): 0.07 pmole/(10^6 cells×min) | Coumarin Hydroxylase Activity DEX Induced ([3]; cell line pEHT144 (pEBVHIStK high copy, HaMSV, GRE, MMTV-LTR2)): 14.4 pmole/(10^6 cells×min) | DEX inducibility ([3]; pEHT144 (T144 reporter in high copy number vector pEBVHistk)): 7 to 10 fold | maximal level of CH activity ([3]; pEHT144, DEX-induced): 10-20 pmole/(10^6 cells×min) | reversal of toxicity of glucocorticoid antagonists upon long term incubation (AHH-1 TK± cells): can be reversed

Structure (SMILES): O=c1ccc2ccccc2o1 [coumarin]
Km (CYP2A6): 1 µM

Continued, in another order:

CYP2A6-catalyzed coumarin 7-hydroxylase activity upon treatment of the cells (mouse PPARα): concentration dependent increase | potency rank on a molar basis (mouse PPARα): most potent | reporter gene expression, concentration response (mouse PPARα): concentration-dependent increases
Structure (SMILES): Cc1cccc(Nc2cc(Cl)nc(SCC(=O)O)n2)c1C [WY14,463]
ranking of chemicals of known ability to induce peroxisome proliferation (mouse PPARα): correctly rank

CYP2A6-catalyzed coumarin 7-hydroxylase activity upon treatment of the cells (mouse PPARα): concentration dependent increase | potency rank on a molar basis (mouse PPARα): followed by ciprofibrate | reporter gene expression, concentration response (mouse PPARα): concentration-dependent increases
Structure (SMILES): CC(C)(Oc1ccc(C2CC2(Cl)Cl)cc1)C(=O)O (stereo not drawn) [ciprofibrate]
ranking of chemicals of known ability to induce peroxisome proliferation (mouse PPARα): correctly rank | difference in toxicity among cell lines (AHH-1 TK± cells): No differences in toxicity | relative toxicity on a molar basis (AHH-1 TK± cells): more toxic on a molar basis | toxicity to the cells (AHH-1 TK± cells): toxic
